According to PubChem BioAssay AID686978 (National Center for Advancing Translational Sciences (NCATS), 2013):
The campaign covered roughly 420,000 compounds. About 64,000 (15%) were called active. This list was built around the results that the source calls inconclusive (neither active nor inactive); the mix of calls is not that of the screen. Calls follow the shape of the dose curve; as a rule, active = well fitted inhibition curve with a large enough effect; inconclusive = small, poorly fitted or top-dose-only effect; inactive = flat fitted curve, though single readings scatter. Potencies of inconclusive entries are left out as doubtful fits.
% is scaled to controls: 0 for no effect and ±100 for the full control effect; potency is read from the fitted curve at half-maximal effect; tags tell the direction and shape of the fitted curve.

Assay: qHTS for Inhibitors of human tyrosyl-DNA phosphodiesterase 1 (TDP1): qHTS in cells in absence of CPT; also: nearly all actives have a fitted effect of over 55% in size
Details: DT40 Tdp1-/- hTDP1 cells, no CPT, ATP luminescence, 48 h; activity change, negative = growth inhibition: at 46.2 µM (top of the series) unless noted
Method in brief: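 Chicken DT40 Tdp1-/- cells stably complemented with human TDP1 were seeded at 400 cells/well with DMSO in place of 20 nM camptothecin. After compound pinning, cells grew at least 48 hr at 37 °C; viability read by CellTiter-Glo luminescence.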
With CC(C)Oc1cccc(-n2c(CCc3c[nH]c4ccc(Br)cc34)nc3ccccc3c2=O)c1 the Potency was inconclusive [inhibitor, partial curve, poor fit]. With COc1ccc(NC(=O)CSc2nc3nc(C)cc(C)c3c(=O)[nH]2)cc1 the Potency was inconclusive [inhibitor, single point]. For O=C(COc1ccc([N+](=O)[O-])cc1Cl)NCCc1ccccc1, the activity change, negative = growth inhibition was inconclusive: -30.2% [inhibitor]. For CC1=C(C)[N+](=O)C2CCCCC2N1[O-] (stereo not drawn), the “activity change, negative = growth inhibition” value was inactive: 4.75%. With COc1cccc(N2CCN(C(=O)c3nc(-c4ccc(Cl)cc4)n4c3CCCCC4)CC2)c1 the Potency was inconclusive [inhibitor, single point]. With COCCn1c(SCC(=O)c2c[nH]c3ccccc23)nc2cc(C(=O)NCC(C)C)ccc2c1=O the “activity change, negative = growth inhibition” value was inactive: -19.4%. With OC(CCN1CCOCC1)(c1ccc(Cl)cc1)C1CCCCC1 (stereo not drawn) the Potency was inconclusive [inhibitor, single point]. With O=C(COc1ccc2ccccc2c1Br)NCc1ccccn1 the Potency was inconclusive [inhibitor, single point]. With CC(=O)C1=C(O)CC(c2ccccc2)CC1=NCCc1c(C)[nH]c2ccccc12 (stereo not drawn) the Potency was inconclusive [inhibitor, single point]. With Cc1ccc(O)c(NC(=O)c2nc3nc(C)cc(C(F)F)n3n2)c1 the Potency was inconclusive [inhibitor, single point]. In the case of COC(=O)c1ccc(NC(=O)C2CCN(S(=O)(=O)c3ccc4c(c3)CCCN4C(C)=O)CC2)cc1, the Potency is reported as inconclusive [inhibitor, single point]. In the case of O=C(COC(=O)CC1c2ccccc2CCN1S(=O)(=O)c1ccccc1)Nc1ccccc1 (stereo not drawn), the Potency is reported as active: 20.6 µM. For COCc1c(C(=O)N/N=C\c2cccnc2)nnn1-c1nonc1N, the “activity change, negative = growth inhibition” value was inactive: -4.54%. For Cc1cccc(NC(=O)c2nc[nH]c2C(=O)N[C@@H](C)C(=O)OC(C)(C)C)c1, the Potency was inconclusive [inhibitor, single point]. In the case of COc1ccc(-c2nc(SC(C)C(=O)NC3CC3)n[nH]2)cc1 (stereo not drawn), the “activity change, negative = growth inhibition” value is reported as inactive: 1.48%. With COc1ccc(CN2CCCC(C(=O)c3ccc4c(c3)OCO4)C2)c(F)c1 (stereo not drawn) the activity change, negative = growth inhibition was inconclusive: -33.9% [inhibitor]. With C[C@H](CO)N1C[C@H](C)[C@@H](CN(C)Cc2ccccc2)Oc2c(NC(=O)C3CCCCC3)cccc2C1=O the Potency was inconclusive [inhibitor, single point]. For CCOC(=O)c1ccc(N=C2SC(C(=O)Nc3ccc(C(=O)O)cc3)CC(=O)N2Cc2cccs2)cc1 (stereo not drawn), the Potency was inconclusive [inhibitor, single point]. In the case of CC(C)N(C(=O)[C@H]1C[C@H](CC(=O)NCCN2CCOCC2)C(=O)N2CCc3c([nH]c4cc(-c5ccco5)ccc34)[C@]12C)C(C)C, the Potency is reported as inconclusive [inhibitor, single point]. In the case of Cc1nc(N2CCCC2)ncc1C(=O)NCc1ccccc1Cl, the “activity change, negative = growth inhibition” value is reported as inactive: -23.5%. For CCc1nnc2n1N(C(C)=O)C(c1ccc(C(C)(C)C)cc1)=C(C(C)=O)S2, the Potency was active: 11.6 µM. In the case of CCN(CC)S(=O)(=O)c1ccc(Br)c(OC)c1, the Potency is reported as inconclusive [inhibitor, partial curve, poor fit]. With COc1ccc(-c2csc(NCCn3c(C)nc4cc(C(F)(F)F)ccc43)n2)cc1 the Potency was inconclusive [inhibitor, single point]. For CCN1CCN(C(=O)c2cccc(OC3CCN(S(C)(=O)=O)CC3)c2)[C@@H](C)C1=O, the “activity change, negative = growth inhibition” value was inactive: -1.08%. In the case of O=S(=O)(c1cccc(Cl)c1)c1nnn2c1nc(NC1CCCC1)c1sccc12, the Potency is reported as inconclusive [inhibitor, single point]. In the case of O=C(Nc1nc2ccccc2[nH]1)c1ccc(Cl)c([N+](=O)[O-])c1, the Potency is reported as inconclusive [inhibitor, partial curve]. In the case of Cc1cccc(C(=O)NC(NCc2ccco2)C(Cl)(Cl)Cl)c1 (stereo not drawn), the Potency is reported as inconclusive [inhibitor, single point]. With Cc1ccc(-c2cc(C(=O)NCCCn3ccnc3)c3cc(Br)ccc3n2)o1 the Potency was inconclusive [inhibitor, single point]. With Cc1[nH]c2ccccc2c1C1(O)C(=O)N(Cc2ccc(Cl)cc2)c2ccccc21 (stereo not drawn) the Potency was active: 5.17 µM. With CCNC(=O)Oc1ccc[nH]c1=O the Potency was inconclusive [inhibitor, single point]. With CCOc1cc(NC(=O)c2ccco2)c(OCC)cc1NC(=O)c1cc(OC)c(OC)c(OC)c1 the Potency was inconclusive [inhibitor, partial curve]. With CCc1cccc(C)c1Nc1c(-c2cccc(O)c2)nc2sccn12 the Potency was active: 16.4 µM. In the case of CCCc1nnc(NC(=O)CCC(=O)N2CCN(CCOc3ccc(C)cc3)CC2)s1, the Potency is reported as inconclusive [inhibitor, single point]. For Cc1cc2c(c(/C=C/C(=O)c3ccccc3)c1)OC1(C=C2)Oc2ccccc2C(=O)N1C (stereo not drawn), the Potency was active: 25.9 µM. With COc1ccc(CC(=O)Nc2sc3c(c2C(=O)Nc2ccc(C)cc2)CCCCC3)cc1 the Potency was active: 16.4 µM. For O=C(Nc1cccc(S(=O)(=O)N2CCCCCC2)c1)c1ccc2c(c1)OCO2, the Potency was inconclusive [inhibitor, partial curve, poor fit]. For Cc1cc(C)nc(SCC(=O)NNS(=O)(=O)c2ccc(C#N)cc2)n1, the “activity change, negative = growth inhibition” value was inactive: -6.44%. In the case of COc1ccc(-c2nc3ccccc3c(C(=O)Nc3ccc(S(=O)(=O)Nc4cc(C)on4)cc3)c2C)cc1, the Potency is reported as inconclusive [inhibitor, single point]. With Cc1ccc(OCC(O)CNCc2ccccc2)cc1C (stereo not drawn) the Potency was inconclusive [inhibitor, partial curve, poor fit]. In the case of C/C(=N\N1CCN(Cc2ccccc2Cl)CC1)c1ccc([N+](=O)[O-])cc1, the Potency is reported as inconclusive [inhibitor, partial curve]. For CC1(C)Nc2cccc3cccc(c23)N1, the Potency was active: 16.4 µM. In the case of S=c1[nH]nc(CN2CCCCC2)n1Cc1ccccc1, the Potency is reported as active: 16.4 µM. For Cc1ccc(NC(=O)NC(=O)CN2C(=O)NC3(CCc4ccccc43)C2=O)c(C)c1 (stereo not drawn), the Potency was inconclusive [inhibitor, single point]. For CCOC(=O)c1cc2c(=O)n3ccccc3nc2n(CC2CCCO2)c1=NC(=O)c1cc(C)cc(C)c1 (stereo not drawn), the Potency was active: 0.0366 µM. For O=C(CCSc1ccccn1)Nc1ccc(Br)cc1, the Potency was inconclusive [inhibitor, single point]. With CCN(CC)S(=O)(=O)c1ccc(N2CCOCC2)c(NC(=O)C2=COCCO2)c1 the Potency was inconclusive [inhibitor, single point]. With Cc1cc2nc(CCN(Cc3cccnc3)C(=S)Nc3ccccc3)[nH]c2cc1C the Potency was inconclusive [inhibitor, single point]. For CN(CC(=O)Nc1ccc(Br)cc1)S(=O)(=O)c1cccc2nsnc12, the Potency was inconclusive [inhibitor, single point]. With COc1ccccc1N1CCN(C(=O)c2ccc3c(=O)n(Cc4ccco4)c(=S)[nH]c3c2)CC1 the Potency was inconclusive [inhibitor, single point]. In the case of CSc1ccc(CNC(=O)c2ccc(NC(=O)C3=CSCCO3)cc2)cc1, the “activity change, negative = growth inhibition” value is reported as inactive: 3.26%. With O=C(NC1CCCC1)C(c1ccccn1)N(C(=O)c1csnn1)c1ccccc1 (stereo not drawn) the Potency was inconclusive [inhibitor, single point]. In the case of O=C(NC(c1ccccc1)c1ccsc1)C1CCN(Cc2ccccc2)CC1 (stereo not drawn), the Potency is reported as inconclusive [inhibitor, partial curve, poor fit]. In the case of CN(C)S(=O)(=O)c1cc(C(=O)OCCn2cnc3c2c(=O)n(C)c(=O)n3C)ccc1Cl, the Potency is reported as inconclusive [inhibitor, single point]. In the case of COc1ccc(CC(=O)NC(C)c2ccc(Cl)c(Cl)c2)cc1S(=O)(=O)N1CCOCC1 (stereo not drawn), the Potency is reported as inconclusive [inhibitor, single point]. For O=C(NCCc1ccccn1)c1cc2ccccc2o1, the “activity change, negative = growth inhibition” value was inactive: 4.09%. With COCCNC(=O)c1sc2ncn(CC(=O)Nc3ccc(C)c(Cl)c3)c(=O)c2c1C the Potency was active: 13 µM. With Cc1nc(-c2cccc(NC(=O)c3cc4cc(Br)ccc4oc3=O)c2)cs1 the Potency was inconclusive [inhibitor, single point]. For Cc1ccc(F)cc1NC(=O)c1cccc(N(C)C)c1, the “activity change, negative = growth inhibition” value was inactive: -1.61%. With COc1ccccc1N1CCN(C(=O)c2cccc(N3C(=O)NC4CC3(C)Oc3ccccc34)c2)CC1 (stereo not drawn) the Potency was inconclusive [inhibitor, single point]. In the case of Cc1ccc(C2(c3ccc(C)cc3)CC2C(=O)NCc2cccnc2)cc1 (stereo not drawn), the activity change, negative = growth inhibition is reported as inconclusive: -21.3% [inhibitor]. With CC(=O)N(Cc1ccc(Br)cc1)c1ccccc1C(=O)O the “activity change, negative = growth inhibition” value was inactive: -11.7%. With COc1cccc(/C(O)=C2/C(=O)C(=O)N(c3cc(C)on3)C2c2cccs2)c1 (stereo not drawn) the Potency was active: 3.66 µM. In the case of O=C(CSc1ccc(-c2cccnc2)nn1)Nc1ccccc1F, the “activity change, negative = growth inhibition” value is reported as inactive: -21.6%. With CSc1nc2ccc(NC(=O)C3=NN(c4ccccc4)C(=O)CC3)cc2s1 the Potency was inconclusive [inhibitor, single point]. In the case of Cc1cc2oc(C(=O)N(Cc3ccc(N(C)C)cc3)CC3CCCO3)c(C)c2cc1Cl (stereo not drawn), the Potency is reported as active: 18.4 µM. In the case of CN1CCN(C2=C(Cl)C(=O)N(c3cccc(Cl)c3)C2=O)CC1, the “activity change, negative = growth inhibition” value is reported as inactive: -3.79%. In the case of O=S(=O)(c1ccc(F)cc1)N1CCN(CC(O)COc2ccccc2F)CC1 (stereo not drawn), the “activity change, negative = growth inhibition” value is reported as inactive: -21.5%. With CC(C)(C)n1nnnc1C(c1cccnc1)N(Cc1ccccc1)Cc1cccs1 (stereo not drawn) the Potency was inconclusive [inhibitor, single point].
